Results: the supplement of paper PMC11417369
± gives the standard deviation of the averaged measurements. The list shows a part of the results.

Each sequence was assayed on PfAP2-LT AP2 domain (GST-tagged) (assay: gcPBM binding intensity (ln(normalized median fluorescence intensity)); higher = stronger DNA binding).
Procedure, shortened: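 In this array assay, P. falciparum DNA-binding domains with a GST tag, expressed in E. coli, were applied for 1 h to primer-extended double-stranded 36-bp intergenic genomic probes and negative controls on an Agilent 4 × 180k array. Bound protein was visualised with Alexa488 anti-GST antibody at 488 nm. Binding intensity is the highest Masliner-normalised natural-log median intensity across replicate spots of either probe orientation.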

Sequence | gcPBM binding intensity (ln)
GAAAACATTAAAAGTTAGATCATAAGAAAAGAATAT [GTGCAC_negctrl_site726] | 8.84 ± 0.48
GTTCATCACATATACACATGCATATTCTAATATGTA [TGCATGCA_site809] | 8.95 ± 0.41
ACATTATATAAAATATGTACATATAAAAAATTCTAT [XGTACX_site1617] | 8.88 ± 0.48
CATATATGTGATAACACGCACACAAATGTATAGAAT [CACACA_site2594] | 9.54 ± 0.49
TTATCATTTGGACACGCACACACACCGAAAAAGAAA [CACACA_site8008] | 9.6 ± 0.24
TTTTTGTAATTATATTAATATATATATATATATATA [CACACA_negctrl_site198] | 8.84 ± 0.18
TTTTTTGCTAAAAAGAGTACTAATAAAAAATTTATT [XGTACX_site5235] | 8.11 ± 0.42
AATAATTTAAGGAATACACACAAGAAAAAAATAAGA [CACACA_site60] | 9.18 ± 0.42
CCACATATACAAAACACACACACAACGTTTTAATAA [CACACA_site1978] | 9.64 ± 0.37
ACAAGAGAAGTAATTGCACACGTTGTTTCTTTTTCT [CACACA_site35] | 9.12 ± 0.33
ATAATAATATAAAATACACACCTATTATTTTTACAA [CACACA_site6069] | 8.81 ± 0.47
TCACTATAGTAATTTACACACATTTGAAGAAAATGT [CACACA_site7626] | 9.03 ± 0.37
TATTTATTTATTTATGCATGCATGAATAATTTTTAC [TGCATGCA_site31] | 8.88 ± 0.28
ATTATTTAGAAATGAGCACACAAAAAGAAGAATTTT [CACACA_site7913] | 8.71 ± 0.58
TTTTAAATTTTTTAAAGTACACGTCGAAAAGGTATA [XGTACX_site76] | 8.24 ± 0.42
AAGAATTATATATTCACACAAAAAAAAAGTAAAAGA [CACACA_site5335] | 8.72 ± 0.52
TATAATATATATATATGTACATATTATTTACATATA [XGTACX_site7312] | 8.8 ± 0.43
AATATATTAAATCTTACACACTAAAAAATATGTAAC [CACACA_site4325] | 8.75 ± 0.42
AAAAAAAAAAAAAAGAGTACATTTATTTATATATCT [XGTACX_site2381] | 8.46 ± 0.33

Sequence | gcPBM binding intensity (ln)
TTTTAACATAGAAGTACACACATATAATCAATCATA [CACACA_site5313] | 8.93 ± 0.47
ATAAAGAAAATATGGAGTACATTTATATCCAATATA [XGTACX_site3085] | 8.69 ± 0.43
TTTTATGAAAAATGGCTTATCTGTAAAGAAGTGGAG [CACACA_negctrl_site1586] | 8.41 ± 0.3
ATATTTGTAATTATTAAACACACACTAATTATATAT [CACACA_site8803] | 9.04 ± 0.38
AAATATATACTACCGATGCACTAAATATAAACACAT [GTGCAC_site9777] | 9.02 ± 0.36
TTAATTTTTGAAGGTACACACTAATATATTAAATAT [CACACA_site4791] | 8.53 ± 0.4
AAAACAGACAAACACACACACACATATATATATATA [CACACA_site3393] | 10.37 ± 0.071
CTTTTAATTATAAAATGTACTTAAAAATAATAATAC [XGTACX_site635] | 8.3 ± 0.47
AAAATGAAACAAATATGTACACATATAAATATTTCC [XGTACX_site54] | 8.94 ± 0.52
TTATCCCCCTATCATTGTACATTAATACAAACTAAA [XGTACX_site5630] | 9.21 ± 0.085
ATATATTTATTATTAGGTACACATATATATATATAT [XGTACX_site5045] | 9.32 ± 0.11
TTAAAAAAAAATAAAGGTACACGGAGAAATCCTTTT [XGTACX_site7509] | 8.46 ± 0.53
AACCACCACACCATCACACATAAGATTAGACGAGTA [CACACA_site6063] | 9.17 ± 0.34
TGTAGTAATGCTTATTGTACATATACATTTCTTACA [XGTACX_site219] | 8.82 ± 0.42
TTATATAGAATTAATTTCTTTTTTTTCTTTTTTAAA [CACACA_negctrl_site1308] | 7.95 ± 0.61
ATTTTTTTTTTTTTTTCATGAAATTTTTTTTTTTTT [CACACA_negctrl_site1069] | 8.71 ± 0.49
AAATATTTTTTAATTGTTCACTTGGTGGATCATTAA [CACACA_negctrl_site922] | 8.43 ± 0.41
TATCCATTATTTAAAAGTACAAAAAACGATTTACAC [XGTACX_site2979] | 8.6 ± 0.38
TTTTTTTTTCGCTTTTGTACACATTTTATAGAACAG [XGTACX_site2416] | 8.73 ± 0.45

Sequence | gcPBM binding intensity (ln)
TATTATATATATGGAAGTACAGGTATATCGTTTTTC [XGTACX_site3771] | 8.73 ± 0.4
TTTTCCCTTAACCTCTGTACATATAATTTTCTTTCC [XGTACX_site4180] | 8.84 ± 0.61
TAGAATATGTTTAGTTGTACAAAACAAAATGGAATT [XGTACX_site5293] | 8.96 ± 0.46
CACATAAAAAAATAAACACACATATGTATATATATA [CACACA_site3177] | 9.13 ± 0.42
ATTTATTTTTTGTGTTCACACATTAGTATCATCTAT [CACACA_site5274] | 9.1 ± 0.58
AAATAAGAAAAAGCGCGTACACATAACATTTTTATA [XGTACX_site8807] | 9.09 ± 0.45
TGCTTTTCTTTTTGCACACTTATGCATATATATATA [CACACA_site2583] | 9.23 ± 0.38
TGTATTCTCTTAGTAGTGCATTTGAAGATTATATAA | 8.53 ± 0.36
TTTATTCAAGGAATAGTGCATAATAATAAGTATTAT | 8.6 ± 0.45
TCTAATGATATATACACACACATATAGATTTATATA [CACACA_site7044] | 9.15 ± 0.33
ATTTTTCTAAAATACTGTACAAAGGTGCATAAAAAG [XGTACX_site4425] | 8.54 ± 0.42
ATATTTATGGAATATACACACATGTATAATTATATA [CACACA_site2033] | 8.9 ± 0.4
TTTTCTGTTTTCATTACACACCTTACAAGAACAATA [CACACA_site2158] | 8.69 ± 0.45
ATATGGAATGATCATAGTACATAATTTAAAATTTTA [XGTACX_site3568] | 8.73 ± 0.51
CTAATTCGTATATGCTGTACCTTTTTCTTACGACTA [XGTACX_site4392] | 9.07 ± 0.53
ACCCTATTTATATATACACACACATATATAAATAAA [CACACA_site8980] | 9.17 ± 0.28
AACATATATAATATTTGTACTTATATACAAAATATG [XGTACX_site7502] | 8.64 ± 0.4
TGTCCTTATTGGCACACACACATATAAGAAATTTAA [CACACA_site5724] | 9.18 ± 0.45
TATTTTTTCTTAAACACACACATATAGATTTATAAC [CACACA_site7354] | 8.92 ± 0.38
